# Measured values reported in the supplement of paper PMC8728848.
# The other results are listed elsewhere or left out.
# Assays:
# Assay in all cases: glycan array binding signal (z-score within array); higher = stronger binding
# Conditions in all cases: glycan notation: IUPAC condensed, linker removed
# Neu5Ac(a2-3)GalNAc = molecular target: Neu5Ac(a2-3)GalNAc
# In short: (§1)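 Columns mapping to the same glycan were averaged after glycan names were converted to IUPAC-condensed notation. The data come from 3228 arrays in the Consortium for Functional Glycomics database, limited to those with an available protein sequence. Binding is reported as a within-array Z-score averaged across arrays of one protein sequence and across linkers.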
# [1] = molecular target: Neu5Ac(a2-3)GalNAc(b1-4)GlcNAc
# In short: as §1
# [2] = molecular target: Neu5Ac(a2-3)[GalNAc(b1-4)]Gal(b1-4)Glc
# In short: as §1
# [3] = molecular target: Neu5Ac(a2-3)[GalNAc(b1-4)]Gal(b1-4)GlcNAc
# In short: as §1
# [4] = molecular target: Neu5Ac(a2-3)[GalNAc(b1-4)]Gal(b1-4)GlcNAc(b1-3)GalNAc
# In short: as §1
# [5] = molecular target: Neu5Ac(a2-3)[Neu5Ac(a2-6)]GalNAc
# In short: as §1
# Neu5Ac(a2-6)Gal = molecular target: Neu5Ac(a2-6)Gal
# In short: as §1
# [6] = molecular target: Neu5Ac(a2-6)Gal(b1-3)GlcNAc(b1-3)[Gal(b1-4)GlcNAc(b1-6)]Gal(b1-4)Glc
# In short: as §1
# Neu5Ac(a2-6)Gal(b1-4)Glc = molecular target: Neu5Ac(a2-6)Gal(b1-4)Glc
# In short: as §1
# [7] = molecular target: Neu5Ac(a2-6)Gal(b1-4)GlcNAc
# In short: as §1
# [8] = molecular target: Neu5Ac(a2-6)Gal(b1-4)GlcNAc(b1-2)Man
# In short: as §1
# [9] = molecular target: Neu5Ac(a2-6)Gal(b1-4)GlcNAc(b1-2)Man(a1-3)Man(b1-4)GlcNAc(b1-4)GlcNAc
# In short: as §1
# [10] = molecular target: Neu5Ac(a2-6)Gal(b1-4)GlcNAc(b1-2)Man(a1-3)[Gal(b1-4)GlcNAc(b1-2)Man(a1-6)]Man(b1-4)GlcNAc(b1-4)GlcNAc
# In short: as §1
# [11] = molecular target: Neu5Ac(a2-6)Gal(b1-4)GlcNAc(b1-2)Man(a1-3)[GlcNAc(b1-2)Man(a1-6)]Man(b1-4)GlcNAc(b1-4)GlcNAc
# In short: as §1
# [12] = molecular target: Neu5Ac(a2-6)Gal(b1-4)GlcNAc(b1-2)Man(a1-3)[GlcNAc(b1-4)][Neu5Ac(a2-6)Gal(b1-4)GlcNAc(b1-2)Man(a1-6)]Man(b1-4)GlcNAc(b1-4)GlcNAc
# In short: as §1
# [13] = molecular target: Neu5Ac(a2-6)Gal(b1-4)GlcNAc(b1-2)Man(a1-3)[Man(a1-6)]Man(b1-4)GlcNAc(b1-4)GlcNAc
# In short: as §1
# [14] = molecular target: Neu5Ac(a2-6)Gal(b1-4)GlcNAc(b1-2)Man(a1-3)[Neu5Ac(a2-3)Gal(b1-4)GlcNAc(b1-2)Man(a1-6)]Man(b1-4)GlcNAc(b1-4)GlcNAc
# In short: as §1
# [15] = molecular target: Neu5Ac(a2-6)Gal(b1-4)GlcNAc(b1-2)Man(a1-3)[Neu5Ac(a2-6)Gal(b1-4)GlcNAc(b1-2)Man(a1-6)]Man(b1-4)GlcNAc(b1-4)GlcNAc
# In short: as §1
# [16] = molecular target: Neu5Ac(a2-6)Gal(b1-4)GlcNAc(b1-2)Man(a1-3)[Neu5Ac(a2-6)Gal(b1-4)GlcNAc(b1-2)Man(a1-6)]Man(b1-4)GlcNAc(b1-4)[Fuc(a1-6)]GlcNAc
# In short: as §1
# [17] = molecular target: Neu5Ac(a2-6)Gal(b1-4)GlcNAc(b1-2)Man(a1-6)Man(b1-4)GlcNAc(b1-4)GlcNAc
# In short: as §1
# [18] = molecular target: Neu5Ac(a2-6)Gal(b1-4)GlcNAc(b1-2)Man(a1-6)[Gal(b1-4)GlcNAc(b1-2)Man(a1-3)]Man(b1-4)GlcNAc(b1-4)GlcNAc
# In short: as §1
# [19] = molecular target: Neu5Ac(a2-6)Gal(b1-4)GlcNAc(b1-2)Man(a1-6)[GlcNAc(b1-2)Man(a1-3)]Man(b1-4)GlcNAc(b1-4)GlcNAc
# In short: as §1
# [20] = molecular target: Neu5Ac(a2-6)Gal(b1-4)GlcNAc(b1-2)Man(a1-6)[Man(a1-3)]Man(b1-4)GlcNAc(b1-4)GlcNAc
# In short: as §1
# [21] = molecular target: Neu5Ac(a2-6)Gal(b1-4)GlcNAc(b1-2)[Neu5Ac(a2-6)Gal(b1-4)GlcNAc(b1-4)]Man(a1-3)[GlcNAc(b1-4)][Neu5Ac(a2-6)Gal(b1-4)GlcNAc(b1-2)[Neu5Ac(a2-6)Gal(b1-4)GlcNAc(b1-6)]Man(a1-6)]Man(b1-4)GlcNAc(b1-4)GlcNAc
# In short: as §1
# [22] = molecular target: Neu5Ac(a2-6)Gal(b1-4)GlcNAc(b1-2)[Neu5Ac(a2-6)Gal(b1-4)GlcNAc(b1-4)]Man(a1-3)[GlcNAc(b1-4)][Neu5Ac(a2-6)Gal(b1-4)GlcNAc(b1-4)Man(a1-6)]Man(b1-4)GlcNAc(b1-4)GlcNAc
# In short: as §1
# [23] = molecular target: Neu5Ac(a2-6)Gal(b1-4)GlcNAc(b1-2)[Neu5Ac(a2-6)Gal(b1-4)GlcNAc(b1-6)]Man(a1-6)[Neu5Ac(a2-6)Gal(b1-4)GlcNAc(b1-2)Man(a1-3)][GlcNAc(b1-4)]Man(b1-4)GlcNAc(b1-4)GlcNAc
# In short: as §1
# [24] = molecular target: Neu5Ac(a2-6)Gal(b1-4)GlcNAc(b1-3)Gal(b1-3)GlcNAc
# In short: as §1
# [25] = molecular target: Neu5Ac(a2-6)Gal(b1-4)GlcNAc(b1-3)Gal(b1-4)GlcNAc
# In short: as §1
# [26] = molecular target: Neu5Ac(a2-6)Gal(b1-4)GlcNAc(b1-3)Gal(b1-4)GlcNAc(b1-2)Man(a1-3)[Neu5Ac(a2-6)Gal(b1-4)GlcNAc(b1-3)Gal(b1-4)GlcNAc(b1-2)Man(a1-6)]GalNAc
# In short: as §1
# [27] = molecular target: Neu5Ac(a2-6)Gal(b1-4)GlcNAc(b1-3)Gal(b1-4)GlcNAc(b1-3)Gal(b1-4)GlcNAc
# In short: as §1
# [28] = molecular target: Neu5Ac(a2-6)Gal(b1-4)GlcNAc(b1-3)Gal(b1-4)GlcNAc(b1-3)Gal(b1-4)GlcNAc(b1-2)Man(a1-3)[Neu5Ac(a2-6)Gal(b1-4)GlcNAc(b1-3)Gal(b1-4)GlcNAc(b1-3)Gal(b1-4)GlcNAc(b1-2)Man(a1-6)]GalNAc
# In short: as §1
# [29] = molecular target: Neu5Ac(a2-6)Gal(b1-4)GlcNAc(b1-3)Gal(b1-4)GlcNAc(b1-3)GalNAc
# In short: as §1
# [30] = molecular target: Neu5Ac(a2-6)Gal(b1-4)GlcNAc(b1-3)Gal(b1-4)GlcNAc(b1-3)[Neu5Ac(a2-6)Gal(b1-4)GlcNAc(b1-3)Gal(b1-4)GlcNAc(b1-6)]GalNAc
# In short: as §1
# [31] = molecular target: Neu5Ac(a2-6)Gal(b1-4)GlcNAc(b1-3)Gal(b1-4)GlcNAc(b1-6)[Gal(b1-3)]GalNAc
# In short: as §1
# [32] = molecular target: Neu5Ac(a2-6)Gal(b1-4)GlcNAc(b1-3)Gal(b1-4)[Fuc(a1-3)]GlcNAc(b1-3)Gal(b1-4)[Fuc(a1-3)]GlcNAc
# In short: as §1
# [33] = molecular target: Neu5Ac(a2-6)Gal(b1-4)GlcNAc(b1-3)GalNAc
# In short: as §1
# [34] = molecular target: Neu5Ac(a2-6)Gal(b1-4)GlcNAc(b1-3)[Neu5Ac(a2-6)Gal(b1-4)GlcNAc(b1-6)]GalNAc
# In short: as §1
# [35] = molecular target: Neu5Ac(a2-6)Gal(b1-4)GlcNAc(b1-6)GalNAc
# In short: as §1
binder,measurement,setting,value
CTAEGIKKFEGDGYELFKDNFPAGEKFDNDDTNDQFYTVIF [MUB40 (Lactobacillus reuteri)],glycan array binding signal (z-score),Neu5Ac(a2-3)GalNAc,-0.447
same,glycan array binding signal (z-score),[1],-0.323
same,glycan array binding signal (z-score),[2],-0.479
same,glycan array binding signal (z-score),[3],0.061
same,glycan array binding signal (z-score),[4],1.71
same,glycan array binding signal (z-score),[5],1.33
same,glycan array binding signal (z-score),Neu5Ac(a2-6)Gal,0.078
same,glycan array binding signal (z-score),[6],0.395
same,glycan array binding signal (z-score),Neu5Ac(a2-6)Gal(b1-4)Glc,-0.496
same,glycan array binding signal (z-score),[7],-0.246
same,glycan array binding signal (z-score),[8],-0.266
same,glycan array binding signal (z-score),[9],-0.774
same,glycan array binding signal (z-score),[10],0.082
same,glycan array binding signal (z-score),[11],-0.291
same,glycan array binding signal (z-score),[12],-0.443
same,glycan array binding signal (z-score),[13],0.634
same,glycan array binding signal (z-score),[14],1.59
same,glycan array binding signal (z-score),[15],1.95
same,glycan array binding signal (z-score),[16],-0.176
same,glycan array binding signal (z-score),[17],-0.414
same,glycan array binding signal (z-score),[18],0.438
same,glycan array binding signal (z-score),[19],1.1
same,glycan array binding signal (z-score),[20],-0.413
same,glycan array binding signal (z-score),[21],0.5
same,glycan array binding signal (z-score),[22],-0.219
same,glycan array binding signal (z-score),[23],-0.381
same,glycan array binding signal (z-score),[24],-0.175
same,glycan array binding signal (z-score),[25],0.931
same,glycan array binding signal (z-score),[26],0.015
same,glycan array binding signal (z-score),[27],1.56
same,glycan array binding signal (z-score),[28],0.292
same,glycan array binding signal (z-score),[29],3.03
same,glycan array binding signal (z-score),[30],-0.339
same,glycan array binding signal (z-score),[31],-0.408
same,glycan array binding signal (z-score),[32],1.24
same,glycan array binding signal (z-score),[33],1.14
same,glycan array binding signal (z-score),[34],-0.239
same,glycan array binding signal (z-score),[35],-0.552
